# Measurements from PMC4336329 (PLoS ONE, 2015).
# About 2,200 (0.71%) of roughly 310,000 compounds showed an effect of 50% or more. Effects have a minus sign here. The list shows a part of the results.
# Molecular target: human ether-à-go-go-related gene (hERG) potassium channel (human, UniProt Q12809)
# Experiment: primary screen, population patch clamp on CHO cells stably expressing hERG
# human ether-à-go-go-related gene (hERG) potassium channel, sequence (Q12809 whole entry, looked up): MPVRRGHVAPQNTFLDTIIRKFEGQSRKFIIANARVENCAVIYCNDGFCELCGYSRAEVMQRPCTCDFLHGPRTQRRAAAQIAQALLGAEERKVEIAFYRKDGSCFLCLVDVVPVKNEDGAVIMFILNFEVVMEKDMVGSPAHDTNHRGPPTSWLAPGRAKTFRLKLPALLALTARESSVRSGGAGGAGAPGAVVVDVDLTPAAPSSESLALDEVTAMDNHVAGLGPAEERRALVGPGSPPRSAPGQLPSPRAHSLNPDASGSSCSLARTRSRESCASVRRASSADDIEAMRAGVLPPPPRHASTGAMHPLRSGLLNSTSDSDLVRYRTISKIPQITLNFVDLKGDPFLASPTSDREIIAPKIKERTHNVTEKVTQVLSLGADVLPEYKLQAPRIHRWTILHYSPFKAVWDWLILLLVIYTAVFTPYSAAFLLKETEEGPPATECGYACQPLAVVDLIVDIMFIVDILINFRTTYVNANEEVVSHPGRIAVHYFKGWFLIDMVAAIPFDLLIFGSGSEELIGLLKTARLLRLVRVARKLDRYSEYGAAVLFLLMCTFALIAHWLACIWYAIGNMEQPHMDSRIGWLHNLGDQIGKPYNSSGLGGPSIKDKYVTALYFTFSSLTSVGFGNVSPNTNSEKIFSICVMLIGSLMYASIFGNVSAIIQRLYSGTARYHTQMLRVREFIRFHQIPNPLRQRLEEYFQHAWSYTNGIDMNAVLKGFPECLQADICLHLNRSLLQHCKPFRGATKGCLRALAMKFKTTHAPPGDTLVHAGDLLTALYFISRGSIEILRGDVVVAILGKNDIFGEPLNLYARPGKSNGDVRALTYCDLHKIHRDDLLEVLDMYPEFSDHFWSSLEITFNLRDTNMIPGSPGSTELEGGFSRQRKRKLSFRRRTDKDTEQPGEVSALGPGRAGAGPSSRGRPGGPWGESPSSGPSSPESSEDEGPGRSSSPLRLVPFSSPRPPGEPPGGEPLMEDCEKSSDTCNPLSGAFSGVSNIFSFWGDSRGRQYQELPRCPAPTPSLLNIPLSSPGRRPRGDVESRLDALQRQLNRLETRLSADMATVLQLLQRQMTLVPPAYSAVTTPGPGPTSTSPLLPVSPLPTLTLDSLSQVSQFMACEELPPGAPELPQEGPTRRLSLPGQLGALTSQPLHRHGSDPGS
row,Structure (SMILES),"hERG current change (%, negative = inhibition) at 1uM [%]"
1,COc1cc(NC(=O)c2cc3ccccc3o2)c(OC)cc1Cl,15.6
2,COc1ccc(C2CC(C)(c3ccc(OC)cc3OC)Nc3ccccc3N2)c(OC)c1 (centres unmarked),2.56
3,CC(=NC(C)c1ccccc1)c1c(O)[nH]c(=O)[nH]c1=O (centres unmarked),5.75
4,O=C(O)c1nn(-c2cccc(Cl)c2)c(=O)cc1O,4.27
5,C=CCNc1nc(NCc2ccccc2)c(C#N)c2c1CN(C)CC2,-15.4
6,O=C(CN1CCc2[nH]c3ccccc3c2C1)N1CCCCC1,6.73
7,O=C(O)CCC(=O)NCc1c(Cl)cccc1Sc1ccc(Cl)cc1,8.17
8,CC(C)c1ccc(NC(=O)CSc2n[nH]c(=O)n2C2CC2)cc1,8.98
9,COc1ccc(CC(=O)NNC(=O)c2cccs2)cc1OC,4.46
10,N#Cc1c(N(CCO)CCO)nc(N)c2c(N)nc3c(c12)CC(=O)N3CC1CCCO1 (centres unmarked),13.1
11,O=C(Nc1cccc(S(=O)(=O)N2CCOCC2)c1)c1ccc2ccccc2n1,5.96
12,COc1ccc(S(=O)(=O)N2CCN(C(=O)c3ccco3)CC2)cc1OC,12.2
13,COc1cccc(C2OC(=O)c3ccccc3N2C(C)=O)c1OC(C)=O (centres unmarked),14.2
14,CCC(OC(=O)c1nsc(Cl)c1Cl)C(=O)NCc1ccco1 (centres unmarked),13.1
15,CCCn1c(N)c(N(CCOC)C(=O)c2ccc(F)cc2)c(=O)[nH]c1=O,12.9
16,CCc1nnc(NC(=O)c2cc(S(=O)(=O)N3CCCCC3)ccc2C)s1,1.93
17,COc1cccc(/C=N/n2nnnc2N)c1O,6.86
18,CCOC(=O)c1sc2nc(N3CCOCC3)c3c(c2c1N)CC(C)(C)N(C)C3,10.6
19,CN(C)S(=O)(=O)c1ccc2c(c1)nc(CCC(=O)NCCc1ccc(Cl)cc1)n2C,-16.4
20,Cc1cc(C)c(C)c(S(=O)(=O)N2C(=S)NC(=O)C2CC(C)C)c1C (centres unmarked),1.8
21,Cc1ccc(NC(=O)COc2ccc3c(c2)CCC3)nc1,7.51
22,Cc1nn(CC(=O)Nc2cccc(S(N)(=O)=O)c2)c(C)c1[N+](=O)[O-],16.1
23,CN(C)C(=O)C12CCC(C)(c3nc4ccccc4nc31)C2(C)C (centres unmarked),11.6

row,Structure (SMILES),"hERG current change (%, negative = inhibition) at 1uM [%]"
1,Cc1ncc(CO)c(/C=N/NC(=O)c2cc(Br)ccc2O)c1O,-7.37
2,Cl.O=C(NCCCN1CCOCC1)c1cn(-c2ccccc2)nc1-c1cccs1,-1.21
3,Cc1nn(C)c(C)c1P(=S)(c1c(C)nn(C)c1C)N(C)C,3.81
4,O=C(O)CCC(=O)Nc1ccccc1C(=O)Nc1ccccc1,16.4
5,CCCCNC(=O)c1cc2c(=O)n3cccc(C)c3nc2n(CCN2CCOCC2)c1=N,-92.4
6,CC1CN(C(=S)SCCN2Cc3ccccc3C2=O)CC(C)O1 (centres unmarked),8.87
7,COC(=O)CN(c1ccc(Cl)cc1C)S(C)(=O)=O,20.4
8,CC(=O)c1cc(F)c(N2CCN(C(=O)C(C)(C)C)CC2)cc1C,5.47
9,CS(=O)(=O)c1ccc(C(=O)OCc2nnc(-c3ccc(Cl)cc3)o2)cc1[N+](=O)[O-],13.7
10,O=C1c2ccccc2S(=O)(=O)N1CC(O)Cn1ccc2ccccc21 (centres unmarked),11.6
11,Cc1c(Cl)c([N+](=O)[O-])nn1CCCC(=O)Nc1cccnc1,12.8
12,O=C(N/N=C/c1cc(Br)c(Br)o1)c1cc2ccccc2o1,5.02
13,COCCCNc1nc2ccccc2nc1NS(=O)(=O)c1cccc(C)c1,16.7
14,N#C/C=C1/NC(=O)c2ccccc2S1,6.73
15,Cc1cc(C(=O)N2CCN(S(=O)(=O)c3ccccc3F)CC2)c(C)o1,11.8
16,C=CCOC(=O)C1=C[C@@H](c2coc3ccccc3c2=O)[C@H](CCCO)[C@@H](OCC)O1,1.09
17,CC(C)(C)C1CCC(=O)N(CCC#N)CC1 (centres unmarked),14
18,C=CCn1c(SCC(O)Cn2c3ccccc3c3ccccc32)nnc1-c1ccco1 (centres unmarked),13.9
19,CCOc1ccc(S(=O)(=O)N2CCN(C(=O)c3cccnc3)CC2)cc1,-11.5
20,O=[N+]([O-])c1ccc(O)c(/C=N/n2cnc3ccccc32)c1,16.6
21,Nc1ccc2nc(SCC(=O)Nc3ccc(N4CCOCC4)c(Cl)c3)sc2c1,11.5
22,CCCn1c(COc2ccccc2OC)nc2ccccc21,1.65
23,CCN(CC)S(=O)(=O)c1ccc2[nH]c(=O)cc(C(=O)NCC3CCCO3)c2c1 (centres unmarked),3.25

row,Structure (SMILES),"hERG current change (%, negative = inhibition) at 1uM [%]"
1,CCOc1ccc(CCNC(=O)CCc2nc(-c3ccc(C)cc3)no2)cc1OCC,1.83
2,CCc1ccc(C2=NN(CCC(=O)NC3CCCCCC3)C(=O)CC2)cc1,8.39
3,O=C(CSc1nc2ccccc2c(=O)n1Cc1ccc(Cl)cc1)NCc1cccs1,-13.4
4,NC1=NC(c2ccc(F)cc2)n2c(nc3ccccc32)N1 (centres unmarked),14
5,COc1ccc(CN2CCNC(=O)C2CC(=O)NCCc2c[nH]c3ccccc23)c(OC)c1 (centres unmarked),18.1
6,Cc1ccc(NC(=O)Cn2nnc3ccccc3c2=O)cc1,13.3
7,Cc1cc(NS(=O)(=O)N(C)C)ccc1C(C)C,13.2
8,COc1cc(CN2CCc3ccc(NC(=O)CCc4ccccc4OC)cc3C2)ccc1O,-2.31
9,CCOC(=O)c1oc2ccc3c(c2c1C)C(=O)CC1(CCN(C(=O)OCC)CC1)O3,11.2
10,Cn1cccc1CC(=O)NNC(=O)Nc1ccc(F)cc1,1.55
11,Cc1cc(C(=O)OCC(=O)c2cccs2)c2ccccc2n1,18.2
12,Cc1nn(C)c(C)c1NC(=S)Nc1ccc(S(=O)(=O)Nc2ncccn2)cc1,-3.62
13,Cc1cc(C(=O)Nc2cc(C)n(Cc3ccc(Cl)cc3)n2)no1,-0.697
14,CC(C)CN1C(=O)C(=O)N(CC(=O)N2CCN(c3ccccc3)CC2)C1=O,-3.82
15,Cc1ccc(NC(=O)CSc2nnc(CSc3nc(C)cc(C)n3)n2Cc2ccco2)c(C)c1,-15.8
16,COCC(C)NC(=O)c1cc(OC)cc(OC)c1 (centres unmarked),13.7
17,Cc1cc(C)cc(Oc2nc3ccccn3c(=O)c2/C=C(\C#N)C(=O)NC2CCS(=O)(=O)C2)c1 (centres unmarked),13.1
18,O=C(NCc1ccc2c(c1)OCO2)c1ccc(CS(=O)Cc2cccc(Cl)c2)o1 (centres unmarked),11.8
19,CC1C/C(=N\NC(=O)CCc2ccc(S(=O)(=O)N3CCOCC3)cc2)CC(C)(C)C1 (centres unmarked),12.2
20,O=C(CCNS(=O)(=O)c1ccc(Br)cc1)NCc1ccco1,-15.1
21,COc1ccc(-c2nc(CS(=O)CC(=O)NC(C)CCc3ccccc3)c(C)o2)cc1OC (centres unmarked),3.26
22,CCOC(=O)c1c(N)c2cc([N+](=O)[O-])cnc2n1C,13.7
23,CC(=O)N1c2ccc(S(=O)(=O)NCC3CCC(C(=O)NCc4ccc(C)cc4)CC3)cc2CC1C (centres unmarked),13

row,Structure (SMILES),"hERG current change (%, negative = inhibition) at 1uM [%]"
1,Cc1ccccc1-n1c(SCC(=O)N2CCC(C(=O)O)CC2)nnc1-c1ccncc1,19.5
2,COCCNC(=O)Cn1cc2c(n1)CCCCC2,7.41
3,CCOC(=O)N1CCN(c2ccc3nnnn3n2)CC1,-5.84
4,O=C(Nc1cccc(-c2ccc(N3CCOCC3)nn2)c1)c1ccccc1,-0.908
5,Cn1nccc1C(=O)Nc1cccc(S(=O)(=O)N2CCOCC2)c1,17.5
6,O=C(c1ccccc1Cl)N1CCSCC1,13.5
7,Cn1cnc2cc(NCc3ccc(Cl)cc3)ccc21,5.06
8,CCOC(=O)c1[nH]c(=O)[nH]c1CN(Cc1ccco1)Cc1[nH]c(=O)[nH]c1C(=O)OCC,-11.2
9,CC(C)c1ccccc1NC(=O)COC(=O)c1cc(=O)[nH]c(=O)[nH]1,5.39
10,COC(=O)C1=C(C)Nc2[nH]c(=S)[nH]c(=O)c2C1c1ccc(OC)cc1 (centres unmarked),18.2
11,COc1cc(OC)cc(C(=O)N2CCN(c3ccccn3)CC2)c1,9.99
12,Cc1cccc(N2CCc3c2nc2ccccc2c3N)c1.O=C(O)C(=O)O,-2.87
13,COc1cc(OC)c2ccc(=O)oc2c1C(CCN1CCCC1)c1ccc(N(C)C)cc1 (centres unmarked),6.42
14,COc1ccccc1CNC(=O)c1cc2c(=O)[nH]c3ccccc3c2n1C,10.5
15,O=C(c1cc2c(s1)-c1ccccc1S(=O)(=O)C2)N1CCCC1,3.64
16,COc1ccc(NC(=O)CSC2=NCCN2)cc1.Cl,4.54
17,CN1C=CC=C/C1=C1/SC(=S)N(Cc2ccccc2)C1=O,11.1
18,CCCCCCCn1ccc(O)c(CC(=O)OC)c1=O,7.72
19,O=C(Cc1ccccc1)Nc1ccccc1N1CCN(c2ccccc2)CC1,11.6
20,O=C(CCCC(=O)N(c1cccc(F)c1)C(C(=O)NC1CCCC1)c1ccc(O)cc1)Nc1ccccn1 (centres unmarked),10.1
